Measurements taken from PubChem BioAssay AID686970 (National Center for Advancing Translational Sciences (NCATS), 2013).
Screen size: about 360,000 compounds; about 6,000 (1.7%) were called active. The shares of active, inactive and inconclusive entries below differ from those in the screen. The call rests on the fitted dose curve; in most records, active means well fitted cell-killing curve with a large enough effect; inconclusive means small, poorly fitted or top-dose-only effect, or effect the other way; inactive means flat fitted curve, though single readings scatter. Potencies of inconclusive entries are left out as doubtful fits.
Potency means the concentration at half of the fitted maximal effect; tags describe the fitted curve by direction and shape.

Assay: qHTS for induction of synthetic lethality in tumor cells producing 2HG: qHTS for the HT-1080-NT fibrosarcoma cell line;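 further: NT is the 2HG producing partner of a matched IDH1 knockdown line; nearly all actives have a fitted effect of over 55% in size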;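 on activity, negative = less viability: 0% = DMSO-treated cells and -100% = media-only wells without cells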
Settings: HT-1080-NT fibrosarcoma viability, CellTiter-Glo ATP luminescence, 48 h; activity, negative = less viability: at 46.1 µM (top of the series) unless noted
In short: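 Toxicity toward the 2HG-producing NT line was scored as %Activity, normalised to DMSO and no-cell wells, from CellTiter-Glo luminescence after 48 hours' treatment.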
With `CCCCn1nnnc1C(CCc1ccccc1)N1CCN(C/C=C/c2ccccc2)CC1` (configuration not stated) the Potency was inconclusive [cytotoxic, single point].
For `Cc1cccc(C)c1NC(=O)Nc1nc(C(N)c2ccccc2Cl)cs1` (configuration not stated), the Potency was inconclusive [cytotoxic, single point].
With `COC(=O)C1=C(C(=O)OC)[C@@H]2N(C)c3ccc(OC)cc3[C@@]23C[C@@H](C(=O)OC)N(C(=O)NC2CCCCC2)C3=N1` the Potency was “inactive”.
For `COc1cc(C(=O)NNC(=O)c2ccccc2Br)ccc1OCC(=O)N1CCOCC1`, the Potency was “inactive”.
In the case of `Cc1onc(-c2c(Cl)cccc2Cl)c1C(=O)N/N=C(\N)COc1ccc(Cl)cc1`, the Potency was inconclusive [cytotoxic, full curve].
In the case of `Cc1ccc(S(=O)(=O)N(CC(O)CN2C(=O)NC(C)(C)C2=O)c2cccc(C)c2)cc1` (configuration not stated), the activity, negative = less viability was inconclusive: -13.9% [cytotoxic].
For `CCOC(=O)c1nnn2c1nc(N1CCN(c3ccccc3)CC1)c1ccccc12`, the Potency was inconclusive [rising, partial curve].
In the case of `Cc1ccc(CN2CCSc3ccc(C(=O)NCCCN4CCN(C)CC4)cc32)cc1`, the Potency was active: 25.9 µM.
With `N/C(=N\OC(=O)c1ccccc1Cl)c1ccccn1` the Potency was inconclusive [cytotoxic, single point].
For `CC(OCC(O)CNCC1COc2ccccc2O1)c1ccc(Cl)cc1` (configuration not stated), the Potency was inconclusive [cytotoxic, partial curve].
For `Cc1cc(N)c2cc(NC(=O)/C=C/c3ccccc3Cl)ccc2n1`, the Potency was inconclusive [cytotoxic, single point].
In the case of `O=C(NCC1CCCO1)c1ccc([N+](=O)[O-])o1` (configuration not stated), the Potency was inconclusive [cytotoxic, single point].
With `C/C(=N\NC(=O)c1cc(C)oc1C)c1ccc(C)c([N+](=O)[O-])c1` the activity, negative = less viability was inactive: 13.2% [at 9.24 µM].
In the case of `Cc1onc(-c2ccccc2)c1C(=O)NNC(=O)c1ccccc1O`, the Potency was inconclusive [cytotoxic, single point].
With `CCC(CO)Oc1cc(NCc2cccc(OC)c2)c2ncn(C(C)C)c2c1` (configuration not stated) the Potency was “inactive”.
With `Cc1ccc(S(=O)(=O)CC(CN2CCCCC2)N2CCCCC2)cc1` (configuration not stated) the Potency was active: 18.4 µM.
With `O=C(/C=C/c1cn(-c2ccccc2)nc1-c1cccnc1)c1ccco1` the Potency was inconclusive [cytotoxic, partial curve].
In the case of `O=C(COC(=O)C12CC3CC(CC(C3)C1)C2)Nc1nc2c(F)c(F)c(F)cc2s1`, the Potency was inconclusive [cytotoxic, single point].
In the case of `COc1cc(OC)c2c(c1)C(=O)OC2OC` (configuration not stated), the Potency was “inactive”.
With `CC(C)CNC(=O)CSc1nnc(CN2CCCCCC2=O)n1-c1ccccn1` the Potency was inconclusive [rising, partial curve].
For `CCCCC[C@@H]1CCCCC[C@@H](O)C[C@H](O)[C@H](O)/C=C/C(=O)O1`, the Potency was “inactive”.
For `Cc1ccccc1NC(=S)NC(NC(=O)c1ccco1)C(Cl)(Cl)Cl` (configuration not stated), the Potency was “inactive”.
For `C/C(CC(=O)Nc1cc(C)ccn1)=N\NC(=O)c1cccc(C)c1O`, the Potency was inconclusive [cytotoxic, single point].
For `Cc1cc2c(Nc3cccc(O)c3)ncnc2s1`, the Potency was “inactive”.
In the case of `CCC1Oc2ccc(C)cc2N(CC(=O)NCCCN2CCN(Cc3ccccc3)CC2)C1=O` (configuration not stated), the Potency was inconclusive [cytotoxic, single point].
With `Cc1csc(NC(=O)CSc2nc(C(C)C)nc3ccccc23)n1` the Potency was inconclusive [cytotoxic, partial curve].
In the case of `COCc1cc(=O)n2[nH]c(-c3cccc(Br)c3)cc2n1`, the Potency was “inactive”.
With `CC(C)NC(=O)N1Cc2cc(C(=O)NC3CCCC3)nc(-c3cccc(-c4cccnc4)c3)c2[C@H]1CCO` the Potency was inconclusive [cytotoxic, single point].
With `C[C@H]1CN(C2CCCCC2)C(=O)[C@@H]1CC(=O)Nc1ccc(Br)cc1` the Potency was “inactive”.
In the case of `CCOc1ccccc1NC(=O)Cn1c(=O)oc2cc(Cl)ccc21`, the Potency was “inactive”.
In the case of `Cn1nc(-c2ccccc2)c(CSc2ccccc2)c1Cl`, the Potency was “inactive”.
For `Cc1ccc(C(=O)N/C(=C\c2ccc(-c3ccccc3[N+](=O)[O-])o2)C(=O)NCCN(C)C)cc1`, the activity, negative = less viability was inconclusive: -31.1% [cytotoxic].
In the case of `O=C(CSc1ccccc1C(=O)N1CCN(c2ccc([N+](=O)[O-])cc2)CC1)N1CCCC1`, the Potency was inconclusive [cytotoxic, single point].
For `CC(C)NC(=S)NCc1cccs1`, the Potency was “inactive”.
With `CCN(CC(=O)NC(=O)NC1CCCC1)Cc1ccccc1` the Potency was “inactive”.
With `Cc1ccc(OCC(=O)NCCc2nc3ccccc3[nH]2)c(C)c1` the Potency was “inactive”.
In the case of `O=C(CS(=O)c1ccc(C(F)(F)F)cc1[N+](=O)[O-])Oc1ccccc1` (configuration not stated), the Potency was active: 16.4 µM.
With `CCOc1ccc(NC(=O)CSc2nnc3c(n2)[nH]c2ccc(S(=O)(=O)N4CCCCC4)cc23)cc1` the Potency was inconclusive [cytotoxic, partial curve].
For `COc1cccc(NC(=O)c2ccc(N3C(=O)C4CC=C(C)CC4C3=O)cc2)c1` (configuration not stated), the Potency was inconclusive [cytotoxic, partial curve, poor fit].
In the case of `CC(C)(C)c1ccccc1NC(=O)Nc1nc(C(N)c2ccccc2Cl)cs1` (configuration not stated), the Potency was inconclusive [cytotoxic, single point].
For `COc1cccc2sc(N(CCCN(C)C)C(=O)C(c3ccccc3)c3ccccc3)nc12`, the Potency was active: 20.6 µM.
With `CCc1nn(CC(=O)NCCCN2CCN(CC)CC2)c(=O)c2cc3occc3n12` the Potency was “inactive”.
With `Cc1ccc(-n2ncc3c2CCCC3NC(=O)c2ocnc2C)cc1C` (configuration not stated) the Potency was inconclusive [cytotoxic, single point].
In the case of `COc1ccc(C(=O)N(Cc2ccco2)C(C(=O)NC2CCCC2)c2ccc(O)cc2)cc1OC` (configuration not stated), the Potency was inconclusive [cytotoxic, single point].
For `O=C(COC(=O)/C=C/c1ccco1)NCCc1ccccc1`, the Potency was “inactive”.
With `CCC12CCC3c4ccc(O)cc4CCC3C1CC(O)C2O` (configuration not stated) the Potency was inconclusive [cytotoxic, single point].
In the case of `C[C@]12c3[nH]c4ccccc4c3CCN1C(=O)C(CC(=O)NCC13CC4CC(CC(C4)C1)C3)C[C@@H]2C(=O)N1CCCCC1` (some centres not stated), the Potency was inconclusive [cytotoxic, single point].
For `Cn1c(C(C#N)C(=O)c2sc3ccccc3c2Cl)nc2ccccc21` (configuration not stated), the Potency was inconclusive [cytotoxic, partial curve].
For `Cc1ncoc1C(=O)N1CCCC(C(=O)c2cccc3ccccc23)C1` (configuration not stated), the Potency was “inactive”.
With `Cc1ccc2c(c1)c(CC(=O)Nc1ccc(C)c(F)c1)c(C(=O)O)n2C` the Potency was inconclusive [cytotoxic, single point].
With `CCOC(=O)c1ccc(N2CCOCC2)c(NC(=O)c2c(-c3ccccc3)noc2C)c1` the Potency was active: 1.84 µM.
In the case of `COc1cc(/C=C/c2nc(-c3ccccc3O)n[nH]2)cc(OC)c1OC`, the Potency was inconclusive [cytotoxic, single point].
With `Cc1cc(Br)cc2c1N(C)C(=O)C2(c1ccc(O)cc1)c1ccc(O)cc1` the Potency was inconclusive [cytotoxic, partial curve].
In the case of `COc1ccc2oc(C(=O)OCC(=O)/C(C#N)=C(\C)N)c(C)c2c1`, the Potency was “inactive”.
With `CCN1CCCC1CN(Cc1cc2ccc(C)cc2[nH]c1=O)C(=S)Nc1ccccc1C(=O)OC` (configuration not stated) the Potency was inconclusive [cytotoxic, partial curve].
For `CO/N=C/NC(=O)NOCc1ccc(Cl)cc1Cl`, the Potency was “inactive”.
For `CCn1c(SCc2nc3scc(-c4ccccc4)c3c(=O)[nH]2)nnc1-c1cccs1`, the Potency was inconclusive [cytotoxic, single point].
For `O=C(NCCc1nc(-c2ccc(F)cc2)no1)c1ccc(F)cc1`, the Potency was “inactive”.
With `COCCOCCn1c(/C=C/c2ccccc2)nc2ccccc21` the Potency was inconclusive [cytotoxic, single point].
In the case of `O=C1Nc2ccccc2/C1=C/C(=O)c1cccs1`, the Potency was inconclusive [cytotoxic, single point].
In the case of `Cc1cc(C)c2nc(NNC(=O)c3ccc(S(=O)(=O)N4CCCCC4)cc3)sc2c1`, the Potency was inconclusive [cytotoxic, partial curve].
For `Cc1cc(C)c(O)c(-c2cc(C(=O)Nc3ccc(S(=O)(=O)N4CCOCC4)cc3)[nH]n2)c1`, the Potency was active: 20.6 µM.
With `Cc1c(C(=O)N(C)C2CCCCC2)sc2ncnc(N3CCN(c4ccccc4)CC3)c12` the Potency was inconclusive [cytotoxic, single point].
For `COCCOC(=O)CSc1ncccc1-c1nc2cc(C)c(C)cc2[nH]1`, the Potency was inconclusive [cytotoxic, single point].
For `CC1CN(S(=O)(=O)c2ccc(C(=O)Nc3nccs3)cc2)CC(C)O1` (configuration not stated), the Potency was “inactive”.
With `NNC(=O)c1nc[nH]c1C(=O)Nc1ccccc1` the Potency was “inactive”.
For `COC(=O)c1ccc(CSc2nc(C)nc3sc(C)c(C)c23)o1`, the Potency was “inactive”.
For `Cc1cccc(N/N=C/c2ccc(O)c(O)c2O)c1`, the Potency was “inactive”.
For `COc1ccc(-c2nc3ccc(Cl)cn3c2Cc2ccccc2C(F)(F)F)cc1OC`, the Potency was inconclusive [cytotoxic, single point].
For `COc1ccc(CC(=O)NCC2CCCN(Cc3ccc(OC(F)(F)F)cc3)C2)cc1` (configuration not stated), the Potency was inconclusive [cytotoxic, single point].
In the case of `NNC(=O)c1cc2c(s1)-c1cc(Cl)ccc1SC2`, the Potency was inconclusive [cytotoxic, single point].
For `CCN(CC)c1ccc(/C=N/NC(=O)c2c[nH]c3ccccc23)cc1`, the Potency was inconclusive [cytotoxic, single point].
